The results in this text go back to ChEMBL document CHEMBL1201862, “PubChem BioAssay data set” (2004).

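96-well plates; 48 h exposure; 5 concentrations. Endpoints by linear interpolation between flanking doses. Not reached: highest tested concentration assigned. At the GI50, growth is halved.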 Active and inactive are the calls of the source. Rule as the data show it: active = GI50 up to about 1.1 µM and inactive = higher.

For this assay, the system named is NCI-H322M. The experiment in a line: NCI-60 cell line screen, 48 h.
Take `COc1nc(C(Cl)(Cl)Cl)c(Cl)c(O)c1Cl`: the GI50 is inactive: > 100 µM. On to `O=C(O)c1cc2c3ccccc3nc-2c[nH]1`, for which the GI50 was inactive: > 100 µM. Consider `Nc1sc2c(c1C(=O)c1ccc(Cl)c(Cl)c1)CCCC2`, for which the GI50 is inactive: 15.1 µM.

As for `O=C1Nc2ccccc2C1Cc1ccccc1` (stereo unspecified), the GI50 is inactive: > 100 µM. For `Cn1c([N+](=O)[O-])cnc1CN1CCN(CCO)CC1`, the GI50 was inactive: > 100 µM. Turning to `COc1cc(C2C(Cl)C(=O)N2n2cnc3ccccc3c2=O)ccc1O` (stereo unspecified), the GI50 is inactive: > 100 µM. Turning to `C/C(=N\Nc1nc2ccccc2n1C)c1cnccn1`, the GI50 is active: 0.307 µM. On to `CC(C)(C)OC(=O)NCCNCCNc1ccccc1`, for which the GI50 is inactive: > 100 µM. The result for `CN/N=C(/CCN1CCCC1)CC(c1ccccc1)c1c(O)c2ccccc2oc1=O` (stereo unspecified) reads inactive: > 100 µM; that for `CN1CCN(P2(=S)Oc3ccc4ccccc4c3-c3c(ccc4ccccc34)O2)CC1`, inactive: 54.8 µM.

In the case of `CCOC(=O)CC[C@H](NC(=O)c1ccc(CNc2nc3cc(C(F)(F)F)ccc3nc2C(=O)OCC)cc1)C(=O)OCC`, the GI50 was inactive: 66.5 µM. Consider `COC(=O)c1c(O)ccc2c1c1c(n2Cc2ccccc2Cl)C(=O)c2ccccc2C1=O`, for which the GI50 was inactive: 14.4 µM. Take `Cc1cc2sc(C)[n+](CCCOS(=O)(=O)[O-])c2cc1C`: the GI50 was inactive: > 100 µM. `Clc1cc2ns[s+]c2cc1Cl`: the GI50 was inactive: > 100 µM. On to `CCc1ccccc1N1CCN(C(=O)c2cc(OC)c(OC)c(OC)c2)CC1`, for which the GI50 was active: 0.0731 µM. The result for `COc1cc(C(O)C(=O)c2nc3ccc([N+](=O)[O-])cc3nc2O)ccc1O` (stereo unspecified) reads inactive: > 100 µM; that for `O=C(NN1C(=O)CSC1c1cccc(F)c1)c1ccncc1` (stereo unspecified), inactive: > 100 µM; that for `Cc1ccc(/C=C/C(=O)c2sc(-c3cccnc3)nc2C)cc1`, inactive: > 100 µM. In the case of `CC1=NN(c2nc(N)nc(/C(C#N)=C\c3cccc([N+](=O)[O-])c3)n2)C(C)(C)C1`, the GI50 was inactive: 25.3 µM. As for `Cc1cc(S(=O)(=O)Nc2nc(N)n[nH]2)c(SCC(=O)O)cc1Cl`, the GI50 is inactive: > 10 µM.

With `COC(=O)c1cc(C)ccc1/C=C1\Cc2c(C)cc(C)cc2C1=O`, the GI50 is inactive: > 73.6 µM. For `COc1ccc(N2C(=O)CSC2c2cc3cc(Br)ccc3nc2Cl)cc1` (stereo unspecified), the GI50 was inactive: > 50 µM. In the case of `CC(C)C(/C=C/c1ccc(Br)cc1)=N\NC(N)=O`, the GI50 is inactive: > 100 µM. `COc1ccc2nc3cc(Cl)ccc3c(NCCCCCC(=O)NC(COc3cnc4c(ccc5cccnc54)c3)COc3cnc4c(ccc5cccnc54)c3)c2c1`: the GI50 is inactive: 18.6 µM. The result for `O=[N+]([O-])C1Cc2ccccc2OC1c1ccccc1` (stereo unspecified) reads inactive: > 100 µM; that for `COC(=O)C1=C(C)NC2(O)C=CC(=O)C3C(=O)N(c4ccccc4)C(=O)C132` (stereo unspecified), inactive: > 100 µM; that for `O=c1c2cc(Br)ccc2[nH]c(=S)n1-c1ccc(Br)cc1`, inactive: > 100 µM. Regarding `CCC(=O)COc1ccc(NC(NC(=O)C(C(F)(F)F)C(F)(F)F)(C(F)(F)F)C(F)(F)F)cc1`, the GI50 was inactive: > 100 µM. With `CCCCCCCC/C=C\CCCCCCC(F)C(=O)O` (stereo unspecified), the GI50 is inactive: > 12.5 µM. Regarding `COc1ccc(C2C3CCCC(C3=O)C(c3ccc(OC)cc3)N2N=O)cc1` (stereo unspecified), the GI50 is inactive: 70.8 µM.

Consider `Cc1ccc(S(=O)(=O)C2c3nc4ccccc4cc3-c3nc4ccccc4nc32)cc1` (stereo unspecified), for which the GI50 was inactive: > 100 µM. As to `NC(CCP(=O)(O)CCC1C=CC=CC1)C(=O)O` (stereo unspecified), the GI50 is inactive: > 100 µM. As to `CCc1ccccc1NC(=O)CC1NC(=O)CS1` (stereo unspecified), the GI50 is inactive: > 100 µM. The result for `Cc1nc(-c2cc3c(ccc4ccccc43)oc2=O)cs1` reads inactive: 84.7 µM; that for `CC1CCc2c(sc3ncnc(N/N=C/c4ccc(Cl)c(Cl)c4)c23)C1` (stereo unspecified), inactive: 25.1 µM. The result for `C=CCC1C(O[Si](C)(C)C(C)(C)C)C(CO[Si](C)(C)C(C)(C)C)OC1n1ccc(=O)[nH]c1=O` (stereo unspecified) reads inactive: 1.66 µM.

Regarding `COc1cc(/C=C(/C#N)C(N)=O)ccc1O`, the GI50 was inactive: > 100 µM. For the compound `CCn1c(SCC(=O)NNC(=S)Nc2ccc([N+](=O)[O-])cc2)nc2ccccc2c1=O`, the GI50 was inactive: 67.8 µM. As to `CCOC(=O)CCC(C(=O)OCC)n1nnc2cc(Nc3c(C)[n+]([O-])c4ccc(Cl)cc4[n+]3[O-])ccc21` (stereo unspecified), the GI50 is inactive: > 100 µM. In the case of `CC(=O)NC1=C(C)C(=O)c2c(nc3n2CC[C@H]3OC(C)=O)C1=O`, the GI50 was inactive: 4.74 µM. In the case of `O=C1N/C(=N/N=C\C(O)C(O)C(O)CO)N/C1=C/c1ccccc1` (stereo unspecified), the GI50 was inactive: > 100 µM. For the compound `Cc1ccc2c(c1)C(c1cccc3ccccc13)OC2=O` (stereo unspecified), the GI50 is inactive: 47.5 µM. The result for `C=CCn1c2ccccc2[n+]2cc([N+](=O)[O-])ccc12` reads inactive: 51.1 µM; that for `O=C1c2c(ccc3c2CCCC3)CC12Cc1ccccc1C2`, inactive: 31 µM. For the compound `CN(CCCCCl)P(=O)(OCc1ccc([N+](=O)[O-])o1)OCC1OC(n2ccc(N)nc2=O)C(O)C1O` (stereo unspecified), the GI50 was inactive: 17.3 µM. Regarding `O=C1c2ccccc2NC1(c1ccccc1)c1c(-c2ccccc2)[nH]c2ccccc12` (stereo unspecified), the GI50 was inactive: 83.9 µM. For `O=C(NC(=S)Nc1ccccc1)c1ccc([N+](=O)[O-])cc1`, the GI50 was inactive: > 100 µM. The figure for `O=c1[nH]nc(Cc2ccccc2)n1/N=C/c1ccc([N+](=O)[O-])o1` is inactive: 4.72 µM; for `CCOC(=O)C1C(=O)CC(C)(O)C(C(=O)OCC)C1c1ccc(N(C)C)cc1` (stereo unspecified) it is inactive: > 100 µM.

For `O=S(=O)(c1ccccc1)C(CN1CCCCC1)S(=O)(=O)c1ccccc1`, the GI50 was inactive: > 100 µM.

As for `CCOc1ccccc1N1CSc2nnc(-c3ccccc3)n2C1`, the GI50 was inactive: > 100 µM.

Turning to `O=[N+]([O-])C[C@@]12O[C@]3(O)C4C5CC(C6C5C3C61)C42` (stereo partly specified), the GI50 was inactive: > 100 µM.

For the compound `CCSc1nnc(Sc2c3ccccc3nc3ccccc23)s1`, the GI50 was inactive: 21.7 µM. Consider `CCOC(=O)C1=NOC2(C=C(Br)C(=O)C(Br)=C2)C1`, for which the GI50 is inactive: 16.2 µM. Consider `CCN(CCN(CC)C(=O)Nc1ccccc1)C(=O)Nc1ccccc1`, for which the GI50 is inactive: > 100 µM.

Turning to `COc1cc2c(cc1C)NC(=O)/C2=C\c1cccnc1`, the GI50 was inactive: 16.3 µM. The figure for `C/C(=C\CNc1ncnc2[nH]c(Cl)nc12)CO` is inactive: > 100 µM; for `Fc1cccc(Cl)c1C1SCc2nc3cc4ccccc4cc3n21` (stereo unspecified) it is inactive: > 100 µM. Regarding `CC(=O)CC(=O)Nc1ccccc1[N+](=O)[O-]`, the GI50 was inactive: > 100 µM. Consider `Nc1nc(Cl)cc(NCC2(CO)CC(CCCc3ccccc3)C2)n1` (stereo unspecified), for which the GI50 is inactive: > 100 µM. For `O=S(=O)(NC(c1ccccc1)(c1cc2ccccc2[nH]1)c1cc2ccccc2n1S(=O)(=O)c1ccccc1)c1ccccc1` (stereo unspecified), the GI50 was inactive: > 100 µM. For `CS(=O)(=O)O[C@H]1[C@H](O)c2ccccc2[C@@H]1N=[N+]=[N-]`, the GI50 is inactive: > 100 µM.

`C#CCN(Cc1ccc2nc(-c3ccccc3)c(N)nc2c1)c1cc(OC)c(OC)c(OC)c1`: the GI50 is inactive: 56.2 µM. For `O=C(OCCN1CCCCC1)C(c1ccccc1)C1(O)CCSCC1` (stereo unspecified), the GI50 was inactive: > 100 µM. For the compound `CCOC(=O)/C(=C\NCC(OCC)OCC)c1nc2ccccc2[nH]1`, the GI50 was inactive: 40.4 µM. Consider `COC(=O)/C(=C(\C)NC(C)=O)c1c(C(=O)OC)[nH]c2ccccc12`, for which the GI50 was inactive: > 100 µM. The result for `CCCCCCCCCCCC[C@H](O)[C@H]1CC[C@H]([C@H](O)CCCC[C@H](O)CCCCC[C@@H](O)CC2=C[C@H](C)OC2=O)O1` reads inactive: 6.34 µM; that for `N#Cc1nc(C(CO)N(Cc2ccccc2)C(=O)O)oc1N` (stereo unspecified), inactive: > 100 µM; that for `Nc1nc(Cl)cc(NCC2(CO)CC(OCc3ccccc3)C2)n1` (stereo unspecified), inactive: > 100 µM. As for `CC(C)(C)OC(=O)NCC(c1c[nH]c2ccc(Br)cc12)c1c[nH]c2ccc(Br)cc12`, the GI50 was inactive: 8.38 µM.

Consider `Cc1ccccc1-n1c(=S)[nH]c2c(sc(=O)n2-c2ccccc2C)c1=O`, for which the GI50 is inactive: > 100 µM. The figure for `Cc1cccc(Nc2cn(COCc3ccccc3)c(=O)[nH]c2=O)c1` is inactive: > 100 µM. On to `COc1cc(/C=N/N=C2NCCCCN2)ccc1O`, for which the GI50 is inactive: > 100 µM. As to `Cc1ccc(C(=O)Nc2ccc(CP(=O)(O)O)cc2CP(=O)(O)O)cc1NC(=O)c1cccc(NC(=O)Nc2cccc(C(=O)Nc3cc(C(=O)Nc4ccc(CP(=O)(O)O)cc4CP(=O)(O)O)ccc3C)c2)c1`, the GI50 was inactive: > 100 µM. Turning to `C=C(C)C1CC=C(C)C(O)([C@@]2(O)C[C@H](C(=C)C)CC=C2C)C1` (stereo partly specified), the GI50 is inactive: 25.9 µM. The result for `COC(=O)CC1C[C@H](C#N)N(C(=O)c2ccccc2)C[C@@H]1CC[N+](=O)[O-]` (stereo partly specified) reads inactive: > 100 µM; that for `C=C(C)C1C/C=C(/C)CCCC2(CCC3=C(CC(C(=C)C)C/C=C(/C)CCC3)O2)C(=O)C1` (stereo unspecified), inactive: > 100 µM; that for `Cc1onc(-c2c(F)cccc2Cl)c1C(=O)N[C@@H]1C(=O)N2[C@@H]1SC(C)(C)[C@@H]2C(=O)O`, inactive: > 100 µM.

Consider `Nn1c(CCCCCCCCc2nnc(COc3ccc4ccccc4c3O)n2N)nnc1COc1ccc2ccccc2c1O`, for which the GI50 is inactive: 47 µM. For the compound `CCN(CC)C(=S)SS(=O)(=O)c1ccc(N)cc1`, the GI50 was inactive: > 100 µM. The figure for `CN(C)c1ccc(/C=C/c2nc3ccccc3s2)cc1` is inactive: > 100 µM.
